# Laboratory results as given in the supplement of paper PMC3334620.
# Over roughly 33,000 sequences, “E-score (-0.5 to 0.5)” has its median near -0.016; the highest 2% begin near 0.31. Some of the results follow.
# Target: Cst6 (UniProt P40535)
# Experiment: PBM E-score (8-mer binding enrichment) (E-score (-0.5 to 0.5)); higher = stronger / more preferred TF binding; most listed sequences are background and not binding sites
# Conditions: protein concentration: 200 nM; construct: GST-DNA-binding domain
# Summary of the method: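 Full-length yeast transcription factors or their DNA-binding domains, GST-tagged and expressed with PURExpress, were applied at about 100-200 nM to universal all-10-mer Agilent arrays. These arrays had been made double-stranded by primer extension on fresh or once-stripped slides. Detection used fluorescent anti-GST, normalisation used masliner, and E-scores for ungapped eight-base words pooled with reverse complements came from the Universal PBM Analysis Suite.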
row,Sequence,PBM E-score
1,ATCGCGGG,-0.0694
2,AGTCTGAG,-0.113
3,AGTTAAGG,-0.0423
4,ACATAGCA,0.164
5,ACTGCTCG,-0.072
6,CTATTTAA,-0.0505
7,TAGGAATA,0.0565
8,GAGTACGA,-0.0415
9,GCCATGGA,-0.156
10,TCGGCTCA,-0.0753
11,GCAGTATA,0.0148
12,CGTCGCGA,0.109
13,ACCTGGCT,-0.19
14,AACATGAC,0.272
15,TATCGGAA,0.0336
16,GTCGCTTA,-0.0207
17,GTGCCCTA,-0.22
18,AATCCCAG,-0.152
19,CTAGCGAC,-0.105
20,AGTCCATC,-0.167
21,AGGACTAG,-0.171
22,GATGCACC,-0.163
23,GATTGCCC,-0.14
24,CGTTTGTC,0.124
25,CTAACCAC,-0.0139

row,Sequence,PBM E-score
1,ACTGCTTC,-0.151
2,AATGTTCA,0.0469
3,CAAGAAGG,-0.00479
4,GTGGACCA,-0.107
5,CGGGGGCC,-0.372
6,CACTCTGC,0.0254
7,AGACTGAT,-0.00128
8,GGTCGGTA,-0.121
9,CGTCAAGC,0.0721
10,GTCCGTGA,0.0214
11,CTAAAACC,-0.046
12,CGGCCTAG,-0.245
13,ACTACTCA,0.209
14,ACGTACGT,0.311
15,ACCGAGCG,-0.103
16,CGCGTCGA,0.155
17,ACAGCACG,-0.0932
18,AAAGGCAC,0.189
19,AGTACAAG,-0.133
20,AACACCAA,0.0956
21,ATCATTTC,0.246
22,ATACAACG,0.163
23,CTTAATTA,0.177
24,CAGACTAC,-0.17
25,CAACCTTA,0.0972

row,Sequence,PBM E-score
1,ATAGACTC,-0.224
2,CAAGCCAA,-0.139
3,GAGTAGCA,0.0442
4,AGGCCTGG,-0.271
5,ACACAGCG,0.221
6,TAGTCCAA,-0.124
7,CGTTCCAC,-0.235
8,AGTACTGG,-0.138
9,ACATCGTA,0.0384
10,ATTAAAGA,0.222
11,ATGTTTGC,-0.0666
12,TCGTTCCA,-0.127
13,ACATACGA,0.239
14,TCCGTGCA,0.102
15,GTGATGGA,0.0419
16,ATCAGCAG,0.162
17,ACAGCGTC,0.0143
18,CACTGGAG,-0.22
19,AGGAGCCT,-0.209
20,ACATCCGG,-0.168
21,GCTTGGGA,-0.149
22,CGGACGCC,0.0289
23,AATGGCCT,-0.00837
24,GGATGGAA,-0.154
25,CCAAGTTA,0.0417

row,Sequence,PBM E-score
1,TTCCGAAA,-0.0146
2,ATTTAATC,0.182
3,GGAATAAA,0.0682
4,CGGACCTA,-0.151
5,GGGTCCAA,-0.189
6,ATCATAAA,0.195
7,TAAGTACA,0.0404
8,ACACTCCC,-0.177
9,CATTTTCA,0.268
10,CAGGAATA,-0.0222
11,GGTCCGTA,-0.208
12,AACTGGGT,-0.177
13,AAATGCCC,-0.145
14,ACCTTCCG,-0.169
15,ACGATTTG,0.143
16,CTATTAGC,0.162
17,CGTCTGAA,-0.0204
18,AATTTTAA,0.25
19,GGTTCGCA,-0.19
20,CTGGCTTA,-0.135
21,CTGTACCC,-0.275
22,GGTAAAGA,0.0496
23,AATGAGTA,0.0942
24,GCGGTGCA,-0.261
25,ATAGCCAA,0.0258

row,Sequence,PBM E-score
1,ATTAAATG,0.315
2,CCCCACCC,0.0755
3,CCCTACGC,-0.28
4,CTTCAGAA,-0.0204
5,GCCTGAAC,-0.253
6,GGGCCACC,-0.235
7,GTGTTTCA,0.0262
8,AAAGGAAA,0.196
9,ATGTAACA,0.279
10,CTCGGCGA,0.0893
11,GCTATAAC,-0.145
12,AGGAAGGC,0.0249
13,ACCTTCGG,-0.088
14,ATCAGCCC,-0.146
15,CCATATTC,-0.0864
16,CAATGTCC,-0.129
17,CGGTATAC,-0.249
18,GGTATGCA,-0.0783
19,GCCTCACC,-0.0748
20,GGCTCGAC,-0.0539
21,CAGTATGC,-0.064
22,TATCTCGA,0.133
23,AGTGTAAA,0.122
24,CGCTTGGA,-0.207
25,AGAGGCCT,-0.258

row,Sequence,PBM E-score
1,ATCGATGG,-0.00086
2,AAGGTTGC,-0.161
3,GTGCCAGA,-0.303
4,GATCCTCC,-0.376
5,ACTCTAAT,0.0593
6,GCAGCAAA,-0.195
7,ACTCCAAC,-0.151
8,CGGGGGGC,-0.265
9,GGGCCCAA,-0.141
10,CACGTGTC,-0.0316
11,GGGATTGA,-0.0874
12,AAATCTAA,0.107
13,AGTTTTGA,0.131
14,GTACGAAA,0.193
15,ACTCTAGG,-0.175
16,GAACTATA,0.0462
17,CCGAGAGA,-0.129
18,CGGACAGC,-0.0579
19,ACGCGCGA,0.119
20,AACTCATA,0.122
21,AGTTATAT,0.0697
22,AAAGAGCA,0.14
23,GTTGCTCA,-0.131
24,GAGTTTCC,-0.137
25,CGGGACAG,-0.11

row,Sequence,PBM E-score
1,AGCGCCAA,-0.102
2,GTTACCAA,0.0213
3,ACAGAGTC,-0.00468
4,ACTCACCT,-0.25
5,AGTATTAG,0.0444
6,AGCAACCA,-0.0285
7,CGGTGACC,0.115
8,AAATCGGC,0.0993
9,AAAAACCT,0.0828
10,CTGCCCGA,-0.14
11,AAAGGGTA,0.0854
12,AAGCGCCC,-0.186
13,TCAAATCA,0.176
14,CGAGTCTA,-0.265
15,CAAGGGGA,-0.0838
16,GAACATTA,0.167
17,ATTGCCTG,0.152
18,AGGGCCTG,-0.33
19,CCATCACA,-0.0245
20,AACTGATG,0.171
21,CACGGATG,-0.0168
22,TAGACTCA,-0.116
23,ACTCGGTC,-0.0694
24,GCGCAAGC,-0.094
25,ACGCTTAA,0.00879

row,Sequence,PBM E-score
1,ACACCAGC,-0.21
2,AACTCGCG,0.106
3,CTAATACC,-0.0924
4,ATTAGTTG,0.227
5,GCCTACTA,-0.00805
6,ACTAGTCC,-0.0722
7,GGGTAAGA,-0.108
8,TACCATCA,-0.0867
9,AGGGGACC,-0.329
10,CGCTTTGA,-0.0317
11,ATAATAAA,0.325
12,CGGTAAAC,-0.0192
13,AAGGTGGA,-0.139
14,AATGGCGC,0.016
15,ATCCTGAA,0.241
16,AGACATCG,-0.109
17,CGATTACA,0.13
18,ATGCCAAA,5e-05
19,CGACGTAA,0.451
20,GTCCCCGA,-0.292
21,CGACTCAA,-0.0831
22,ACCGGTAT,-0.217
23,CACAGCAA,0.234
24,ACTGCTAT,-0.0957
25,ACGTAGCT,0.19

row,Sequence,PBM E-score
1,GCAGCGCC,0.0306
2,CGGTGTCC,-0.257
3,ACTTTTTA,0.22
4,TGCCCTAA,-0.23
5,AAGATAAC,0.088
6,ATCGTAAA,0.172
7,GGCGTGTA,-0.00998
8,CTGGGTGA,0.0385
9,GCAACGCA,-0.216
10,GACATTGC,0.0623
11,ATATTTAA,0.355
12,ATGGTCCC,-0.121
13,CGGTACTC,-0.26
14,TCACCCGA,0.173
15,AAGAGCGG,0.0498
16,AGAGCAAT,-0.24
17,CACCTTTC,-0.139
18,AGCTGATA,0.118
19,AAAAAGAC,0.124
